# Experimental data from publication PMC4336329 (PLoS ONE, 2015).
# Hit rate of the full screen: of about 310,000 compounds, about 2,200 (0.71%) showed an effect of 50% or more. The effect is printed as a negative number. The list shows a part of the results.
# Molecular target: human ether-à-go-go-related gene (hERG) potassium channel (human, UniProt Q12809)
# Assay: primary screen, population patch clamp on CHO cells stably expressing hERG
# Sequence of human ether-à-go-go-related gene (hERG) potassium channel (Q12809 whole entry, looked up): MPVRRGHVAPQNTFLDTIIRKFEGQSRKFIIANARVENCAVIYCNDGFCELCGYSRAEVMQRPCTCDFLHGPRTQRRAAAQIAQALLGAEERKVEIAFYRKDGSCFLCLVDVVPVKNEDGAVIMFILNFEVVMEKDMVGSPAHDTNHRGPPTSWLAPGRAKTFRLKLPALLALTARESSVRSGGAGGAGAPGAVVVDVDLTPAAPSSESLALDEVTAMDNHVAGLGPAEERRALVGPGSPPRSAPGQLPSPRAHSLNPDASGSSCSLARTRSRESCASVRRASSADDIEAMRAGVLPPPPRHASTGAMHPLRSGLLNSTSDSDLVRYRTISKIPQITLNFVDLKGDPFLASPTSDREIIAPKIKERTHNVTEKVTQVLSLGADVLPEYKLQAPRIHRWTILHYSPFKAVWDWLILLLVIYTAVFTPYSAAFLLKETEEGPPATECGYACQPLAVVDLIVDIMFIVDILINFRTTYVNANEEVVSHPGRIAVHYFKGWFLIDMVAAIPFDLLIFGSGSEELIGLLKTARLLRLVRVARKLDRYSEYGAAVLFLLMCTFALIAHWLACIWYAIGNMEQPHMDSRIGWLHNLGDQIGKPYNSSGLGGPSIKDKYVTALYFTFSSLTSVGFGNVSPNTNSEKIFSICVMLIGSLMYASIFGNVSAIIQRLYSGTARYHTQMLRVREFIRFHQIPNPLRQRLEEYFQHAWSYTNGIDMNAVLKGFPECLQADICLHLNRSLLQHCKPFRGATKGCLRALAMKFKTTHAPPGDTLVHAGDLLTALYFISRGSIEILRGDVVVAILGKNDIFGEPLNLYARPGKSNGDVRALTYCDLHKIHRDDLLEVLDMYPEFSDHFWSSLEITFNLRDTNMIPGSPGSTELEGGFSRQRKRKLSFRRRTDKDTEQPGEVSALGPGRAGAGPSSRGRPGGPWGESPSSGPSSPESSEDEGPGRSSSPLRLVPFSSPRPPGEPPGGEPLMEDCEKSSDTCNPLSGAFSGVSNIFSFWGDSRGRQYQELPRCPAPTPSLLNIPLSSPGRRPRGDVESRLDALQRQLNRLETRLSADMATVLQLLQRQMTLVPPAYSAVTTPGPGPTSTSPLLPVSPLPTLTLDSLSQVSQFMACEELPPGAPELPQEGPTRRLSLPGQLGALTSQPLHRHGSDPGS
row,SMILES,"hERG current change (%, negative = inhibition) at 1uM"
1,CCOC(=O)N1CCN(C(=O)CCNS(=O)(=O)c2cc(Br)cnc2N)CC1,10.6%
2,C=CCn1c(SCC(=O)NC(C)(C)C)nnc1-c1ccccc1O,-4.13%
3,Cc1ccc(-c2nc3ccccc3c(=O)n2CCCN2CCOCC2)cc1,8.79%
4,CC(=O)Oc1cc(OC(C)=O)c2c(=O)c(-c3ccc4c(c3)OCCCO4)c(C)oc2c1,10.9%
5,O=C(CN1C(=O)NC2(CCCc3ccccc32)C1=O)NCc1ccco1 (stereo not shown),15.9%
6,O=C(NNC1=NCCCCC1)c1ccccc1,11%
7,CCCCn1nc2cc(C(=O)NCc3ccccc3OC)ccc2c1OCC,-12.4%
8,Cc1ccc(-n2nc3c(c2NC(=O)c2ccco2)CS(=O)C3)c(C)c1 (stereo not shown),2.16%
9,CCOC(=O)c1c(C)[nH]c(C(=O)O)c1C,11.5%
10,CC1=CC(C)(C)N=C(NC#N)N1,7.76%
11,CCCCc1nnc(NC(=O)CSc2nc(C)cc(=O)[nH]2)s1,-2.64%
12,OCCCn1c(C2CCCN2c2nc(-c3ccc(Cl)cc3)cs2)nc2cc(Cl)c(Cl)cc21 (stereo not shown),-15.5%
13,S=c1[nH]nc(Nc2ccccc2Cl)s1,10.5%
14,CC(C)c1nc(SCC(=O)Nc2c[nH]c(=O)[nH]c2=O)c2cnn(-c3ccccc3)c2n1,7.46%
15,COc1ccc(C(=O)Nc2cccc(-c3ccc4nncn4n3)c2)cc1OC,16.1%
16,CN(Cc1c(F)cccc1Cl)C(=O)CNC(=O)c1cccs1,-0.787%
17,Cc1cc(C(C)(C)C)cc(C)c1CCNC(=O)c1ccc[n+]([O-])c1,9.13%
18,CCCCOc1ccc(C2(C)NC(=O)NC2=O)cc1 (stereo not shown),-1.45%
19,NS(=O)(=O)c1ccc(CCNC(=O)c2cc(-c3ccco3)nc3ccccc23)cc1,-8.77%
20,Cc1cccc(C)c1NC(=O)CNC(=O)CCCc1c[nH]c2ccccc12,-9.02%
21,O=C1N[C@@H](Cc2ccccc2)C(=O)N2[C@H]1C[C@]1(Br)c3ccccc3N(S(=O)(=O)c3ccccc3)[C@H]21,10.8%
22,COc1ccc(C(=O)C2CCCN(C(=O)CCc3scnc3C)C2)c(C)c1 (stereo not shown),3.18%

row,SMILES,"hERG current change (%, negative = inhibition) at 1uM"
1,COc1ccccc1C(=O)COC(=O)C(CCSC)NC(=O)COc1ccccc1 (stereo not shown),13.7%
2,CCOC(=O)c1ccc(CSc2n[nH]c(C)n2)o1,6.09%
3,CCOCCCNC(=O)c1cc(Sc2ccc(F)cc2)nc2ccccc12,1.22%
4,Cc1ccc(Cn2nnc3c(=O)[nH]c(C4CCN(S(=O)(=O)c5cc(C)ccc5C)CC4)nc32)cc1,17.6%
5,CN(C(=O)c1sc2nc(N3CCCC3)c3c(c2c1N)CC(C)(C)OC3)c1ccccc1,-3.88%
6,CCCCC(C)C(OC(=O)CC(CC(=O)O)C(=O)O)C(CC(C)CC(O)CCCCC(O)CC(O)C(C)N)OC(=O)CC(CC(=O)O)C(=O)O (stereo not shown),7.36%
7,Cc1ccc(-c2ccc(CCC(=O)O)n2NC(=O)c2cccs2)cc1,4.46%
8,COCCn1c(SCC(=O)Nc2cc(C)on2)nc2c(c1=O)SCC2,13.2%
9,COc1ccc(OC)c(S(=O)(=O)N2CCCC(C(=O)NCc3cccnc3)C2)c1 (stereo not shown),10.1%
10,CCCc1cc(C(=O)OC)c(NC(=O)CCCC(=O)O)s1,15.5%
11,O=C(CN(c1ccccc1)S(=O)(=O)c1ccccc1)N1CCOCC1,11.9%
12,COCCCNC(NC(=O)c1ccc(OC)cc1)C(Cl)(Cl)Cl (stereo not shown),8.74%
13,CCOC(=O)c1c(C)[nH]c(C)c1S(=O)(=O)NCC1CCN(Cc2cccc(Cl)c2)CC1,18.2%
14,COc1ccc2c(c1)[C@H]1[C@H](CO2)[C@H](c2ccccc2)[C@]2(C)C(=O)N[C@H](C)C(=O)N12,9.68%
15,O=c1cc2[nH]c3ccccc3c(=O)n2nc1-c1ccccc1,8.8%
16,c1ccc2c(N3CCCCCC3)nc(-c3ccncc3)nc2c1,9.47%
17,Cc1cc(C)c(C#N)c(SCC(=O)C(C)(C)C)n1,9.45%
18,CCN1C(=O)[C@H]2[C@@H](c3ccc(OC)cc3)N3C(=O)CN(CCOC)C(=O)[C@@]3(C)[C@H]2C1=O,8.61%
19,COC(=O)c1c2c(nc3ccccc13)CCC2,-7.16%
20,Cc1ccccc1CNc1nc(N)n(-c2ccccc2)n1.Cl,7.7%
21,O=C(Cn1cc(SCc2ccc(Cl)cc2)c2ccccc21)N1CCOCC1,12.8%
22,N#Cc1ccsc1NC(=O)CSc1nnc(-c2ccccc2)o1,8.91%

row,SMILES,"hERG current change (%, negative = inhibition) at 1uM"
1,Cc1cc2c3c(c1)C1(C(=O)N3C(C)(C)CC2C)C(C#N)=C(N)Oc2cc(O)ccc21 (stereo not shown),16.1%
2,Cc1ccc(O)c(N=CC2=C(O)c3ccccc3C2=O)c1,9.83%
3,COCCCNC(=O)c1ccc(CS(=O)(=O)c2ccc(OC)cc2)o1,5.2%
4,CCOc1cc(C(=S)N2CCOCC2)ccc1OC(=O)c1ccccc1,13.5%
5,CC(C)c1ccc(C(N)=S)cc1,7.86%
6,O=C(CN1CCCN(Cc2ccc(F)cc2Cl)C1=O)NC1CCCCCC1,-6.76%
7,CC(=O)NC(=S)Nc1ccc(S(=O)(=O)N2CCOCC2)cc1,11.7%
8,CCOc1cccc2cc(-c3cn4cc(C)ccc4n3)c(=O)oc12,14.1%
9,CCN(Cc1ccc2c(c1)OCCO2)C(=O)CN1C(=O)NC2(CCc3ccccc32)C1=O (stereo not shown),14.3%
10,CC1(C)CC(=O)C2=C(C1)Nc1[nH]c(=S)[nH]c(=O)c1C2c1ccccc1 (stereo not shown),16.1%
11,CSc1ccccc1NC(=O)c1onc(C)c1Cl,10.4%
12,O=C(NCc1ccco1)c1nn2cccnc2c1Cl,5.52%
13,COc1ccc(C(CNC(=O)Cc2ccccc2F)N2CCCCC2)cc1 (stereo not shown),-2.77%
14,Cc1ccc(C)n1N1C(=O)/C(=C\c2ccc(Cl)cc2)SC1=S,15.8%
15,O=C(Cc1ccccc1)Nn1c(-c2ccccc2)nc2ccccc2c1=O,-1.2%
16,O=C1c2ccccc2-c2cccc(NS(=O)(=O)c3ccc(C(F)(F)F)cc3)c21,20.7%
17,CC(C)CC1(C)NC(=O)NC1=O (stereo not shown),-20.6%
18,CCOC(=O)CSc1nnc(CNC(=O)c2ccc(S(=O)(=O)N3CCCCC3)cc2)n1C,7.73%
19,CCOC(=O)C1=C(COC(=O)c2ccc3ccccc3c2O)NC(=O)NC1C (stereo not shown),-3.87%
20,Cc1ccc2nc(-c3ccccn3)oc2c1,12.6%
21,COc1cccc(NCc2nnc(SCC(=O)N(C)C3CCS(=O)(=O)C3)n2C2CCCCC2)c1 (stereo not shown),8.65%
22,C/C(=N\NC(=O)CNC(=O)c1ccncc1)c1ccc(C)cc1,12.8%

row,SMILES,"hERG current change (%, negative = inhibition) at 1uM"
1,O=C(O)c1ccc(Cn2c(=S)[nH]c3cc(Cl)ccc3c2=O)cc1,15.3%
2,FC(F)(F)c1ccccc1NC(=S)N1CCN(c2ncccn2)CC1,11.5%
3,CCOC(=O)[C@@H]1[C@H]2COc3ccc(Br)cc3[C@@H]2N2C(=O)N(c3ccc(C(F)(F)F)cc3)C(=O)[C@]12C,11.8%
4,COc1cc(OC)cc(C(=O)OC(C)C(=O)NC2CCCc3ccccc32)c1 (stereo not shown),13.5%
5,O=C(Nc1ccnn1C1CCN(Cc2c(F)cccc2Cl)CC1)C1CCCC1,2.88%
6,CCOC(=O)c1sc(-c2ccc(Cl)cc2Cl)nc1O,16.6%
7,O=C(CSc1nnc2ccc(-c3cccnc3)nn12)Nc1ccc(F)cc1F,-36.3%
8,c1ccc(-n2c(SCC3CCCCO3)nnc2-c2cccs2)cc1 (stereo not shown),10.8%
9,Cc1ccc(Cn2cccc(NC(=O)NCc3ccccc3)c2=O)cc1,-1.17%
10,COc1cccc(-c2cc(C(=O)NCCCn3ccnc3)no2)c1,6.26%
11,CC(C)(C)NS(=O)(=O)c1cccc2nsnc12,20.2%
12,CCCC(=O)Oc1ccc(N(C(=O)CCC)S(=O)(=O)c2cccs2)cc1,8.95%
13,Cc1cc(-c2ccc(N3C(=O)CCC3=O)c(C)c2)ccc1N1C(=O)CCC1=O,13.3%
14,Cc1nc(-c2ccccc2)sc1C1(C)CC(c2ccc(C#N)cc2)=NO1 (stereo not shown),8.44%
15,CC(NC(=O)NC1CCCCC1)C(c1cccs1)N1CCN(Cc2ccccc2)CC1 (stereo not shown),-7.01%
16,O=C(NCC1CCN(S(=O)(=O)c2ccccc2)CC1)Nc1ccc(F)cc1F,5.22%
17,CCc1nnc(NS(=O)(=O)c2ccc(N/C=C\C(=O)c3ccc(F)cc3)cc2)s1,26%
18,Cc1ccc(CC(CC(=O)O)C(=O)Nc2ccc(Cl)cc2)cc1 (stereo not shown),7.67%
19,COc1ccc(C(=O)c2c(-c3ccc(OC)cc3)oc3ccccc23)cc1,9.63%
20,O=C(NC1CCCc2ccccc21)c1cc(F)cc(F)c1 (stereo not shown),15.2%
21,N#C/C(=C\c1ccc(OCc2ccc(C(=O)O)cc2)cc1)C(=O)N1CCOCC1,-9.21%
22,COc1ccc(/C(O)=C2\C(=O)C(=O)N(CC3CCCO3)C2c2cc(OC)ccc2OC)cc1 (stereo not shown),2.86%
